Measurements published in the BET-seq Pho4 binding data (Le et al. 2018).
The list shows a part of the results. These are noisy estimates, calculated here from bound and input reads.

Each sequence was assayed against T1, Pho4 (S. cerevisiae) (UniProt P07270) (assay: relative binding free energy (BET-seq); higher = weaker binding). Conditions: reference: library average.
T1 sequence: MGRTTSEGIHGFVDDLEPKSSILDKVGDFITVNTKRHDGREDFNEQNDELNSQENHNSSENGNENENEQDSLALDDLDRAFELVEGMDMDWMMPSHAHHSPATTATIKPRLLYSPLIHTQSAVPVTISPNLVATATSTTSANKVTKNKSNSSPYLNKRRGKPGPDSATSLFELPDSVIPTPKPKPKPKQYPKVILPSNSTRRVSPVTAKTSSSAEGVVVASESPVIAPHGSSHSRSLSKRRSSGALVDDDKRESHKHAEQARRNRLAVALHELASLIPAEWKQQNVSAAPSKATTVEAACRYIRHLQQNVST

Relative binding free energy, 0.12 kcal/mol:
TTTATCACGTGGGATA
TTGGACACGTGGACTT
CTTGGCACGTGAGTGA
GTTGACACGTGTCTTG
CGGGTCACGTGTGCGG
CAGGTCACGTGGTGCT
TATTCCACGTGTTAGT

Relative binding free energy, 0.26 kcal/mol:
GTGTGCACGTGAGGAA
TTCTACACGTGTGGGG

Relative binding free energy, -0.01 kcal/mol:
AATTGCACGTGGGGAA

Relative binding free energy, 0.01 kcal/mol:
TACGACACGTGGTTTT
TTGCACACGTGGCTGT
TTTATCACGTGTATCA
TTTTACACGTGGGTTT

Relative binding free energy, -0.06 kcal/mol:
GGGAGCACGTGTAGAA

Relative binding free energy, 0.24 kcal/mol:
CATTTCACGTGTGGTA
GGTCGCACGTGAAAGT
TGAGGCACGTGAAGTA
GATGGCACGTGAATAT
TCAGTCACGTGTAGCG
CTGTTCACGTGCTTTT

Relative binding free energy, 0.13 kcal/mol:
GGGCGCACGTGAGTTA
TATATCACGTGCTTGG
ATCATCACGTGCGGGG
GCGATCACGTGGTGTG
AGATTCACGTGGCATG
TGGTACACGTGTTTCG

Relative binding free energy, -0.14 kcal/mol:
ACTAGCACGTGGGGCT

Relative binding free energy, 0.04 kcal/mol:
GTCATCACGTGGATTT
TGTGGCACGTGATGTG
TATGACACGTGTTCAG
AGTTGCACGTGAGTGA
GTCATCACGTGGCGGG

Relative binding free energy, 0.3 kcal/mol:
CTGTTCACGTGTAAGT

Relative binding free energy, 0.03 kcal/mol:
GGTGACACGTGGCGCA
CGAGTCACGTGGTTGG
CTAGGCACGTGTGATT
TGTCGCACGTGTTCTT
AGTTGCACGTGGAGGC

Relative binding free energy, 0.05 kcal/mol:
ACCGGCACGTGTGGTG
TTAGACACGTGTCTTG
AGGAACACGTGGTCGG
GAAAGCACGTGTAGTA

Relative binding free energy, 0.33 kcal/mol:
AGAGTCACGTGAGTTT
GGATTCACGTGCAGGG
ACAGTCACGTGAAAGG
CAGTTCACGTGTAGCG

Relative binding free energy, 0.41 kcal/mol:
AATTTCACGTGTCGAT

Relative binding free energy, 0.37 kcal/mol:
GCAATCACGTGTGGCG
ATGTTCACGTGTGACT
GTATTCACGTGTGAGA
TAGAACACGTGAATGG

Relative binding free energy, -0.18 kcal/mol:
TGACGCACGTGCGGGG
ACATGCACGTGGCGGT
ACAGGCACGTGGAGGT
CTTAACACGTGGGTTT
TTTAGCACGTGCGTGA

Relative binding free energy, 0.02 kcal/mol:
GGACACACGTGGATGT
ATATACACGTGGTTGG
GCGTGCACGTGTTGTA

Relative binding free energy, 0.19 kcal/mol:
CGATTCACGTGGTGTG

Relative binding free energy, -0.04 kcal/mol:
ATTGTCACGTGCTGTA
TCAGTCACGTGTTTGA
CTTAGCACGTGATTGT

Relative binding free energy, -0.02 kcal/mol:
TTCGGCACGTGATTGT
TAAGTCACGTGTTGGC
TAATACACGTGTGGTG

Relative binding free energy, 0.36 kcal/mol:
AGGTTCACGTGTCTGA

Relative binding free energy, 0 kcal/mol:
TTATACACGTGGTATT
GGAAACACGTGGTTTG
GGAAACACGTGCGGGG
TCTGGCACGTGTTTTT
GCTTGCACGTGTATAG
ATGATCACGTGGGAGC

Relative binding free energy, -0.03 kcal/mol:
AGAGGCACGTGCAGTG
AATGCCACGTGTATTG
CATGGCACGTGGGAAT
CGTTGCACGTGGTGTT
TAGTGCACGTGTGCTT
AGCAGCACGTGTATGG
TGGGTCACGTGGGCTG
AGGGCCACGTGTTGAA

Relative binding free energy, 0.2 kcal/mol:
GTATTCACGTGCTGGT
TGATACACGTGAGGTA
GAAGTCACGTGTATAG
TGAAACACGTGGTTCT
AGGTACACGTGTCGTT

Relative binding free energy, 0.09 kcal/mol:
TTGGCCACGTGTTTCT
GGTCGCACGTGTTGTT
GGCCTCACGTGTTGTG

Relative binding free energy, -0.05 kcal/mol:
TTAGTCACGTGGTGAT
TTCGGCACGTGCAGGG
AGGGACACGTGGGTTC
GTGAACACGTGGGGTC
GCAGTCACGTGGGTGT
AAGGTCACGTGGTCAT

Relative binding free energy, -0.1 kcal/mol:
GTTGGCACGTGGTGTG
TATTGCACGTGGCGGA
GTCGGCACGTGGGAGT
TTACGCACGTGTGAGG
GTTACCACGTGTTTGG
TGAAGCACGTGGCGTA
TGTGGCACGTGCATGT
TGGACCACGTGGTGCG

Relative binding free energy, -0.19 kcal/mol:
GAAGGCACGTGGGGGT
GGGCGCACGTGGTGTA

Relative binding free energy, 0.47 kcal/mol:
TGATTCACGTGTAACA
GGAGTCACGTGAATAT
AATCTCACGTGAGGTT

Relative binding free energy, 0.27 kcal/mol:
ATTTTCACGTGTCAGT
TTTCTCACGTGGCGGT

Relative binding free energy, 0.1 kcal/mol:
ACTGACACGTGTATGG
TGGAGCACGTGATGTA
TGCTACACGTGGTTAT
GAGGACACGTGGGAGA

Relative binding free energy, -0.08 kcal/mol:
AATAGCACGTGTTAGT
GGGTCCACGTGGTCGG
TTGCGCACGTGTGTAG

Relative binding free energy, 0.06 kcal/mol:
TTAGCCACGTGATGGG
TGTTCCACGTGTAGGC
GCATACACGTGTTGGG
TAGATCACGTGGATGT
GTTCGCACGTGGGAGA
TTTAACACGTGATGGG

Relative binding free energy, 0.4 kcal/mol:
CATTTCACGTGTTAGA

Relative binding free energy, 0.18 kcal/mol:
TTCCTCACGTGGTAGT
GGGAACACGTGGTCAG
GTGTCCACGTGAGAGT
GGGCTCACGTGTTTTG
GGGGTCACGTGTGTGT
AGTATCACGTGCGGAT

Relative binding free energy, -0.17 kcal/mol:
CTTGGCACGTGGTCCG
TTTTGCACGTGGCTTT
ATGTGCACGTGGGGAG

Relative binding free energy, -0.16 kcal/mol:
CATTGCACGTGGTGCG
CTTAGCACGTGGGGTG
TTTCGCACGTGGTTAA

Relative binding free energy, -0.2 kcal/mol:
TATAGCACGTGGCGTA
ATTGGCACGTGTGCAT

Relative binding free energy, -0.21 kcal/mol:
TAAGGCACGTGGGTGA

Relative binding free energy, 0.08 kcal/mol:
TGCATCACGTGGTAAT
GTGGTCACGTGGGGTT
TACGTCACGTGTAGGT
TGAAACACGTGGGTGA
TTTTACACGTGTTCGG

Relative binding free energy, -0.26 kcal/mol:
TGTAGCACGTGCCGGT

Relative binding free energy, -0.15 kcal/mol:
TACGGCACGTGGGTGA
CCAGGCACGTGGGGGG
TTGTGCACGTGCATTG
TTAGGCACGTGTGCAG
GTGTGCACGTGTTTAC

Relative binding free energy, 0.32 kcal/mol:
GTATTCACGTGTGACG

Relative binding free energy, 0.22 kcal/mol:
GTTTGCACGTGAAATG
GAAGTCACGTGATTGT

Relative binding free energy, -0.12 kcal/mol:
TTTAGCACGTGGATGT
GGGTGCACGTGGGCAA
AAGGGCACGTGGGTTC
GCGTGCACGTGGATGG
GATGGCACGTGGATGT

Relative binding free energy, 0.07 kcal/mol:
GAGAGCACGTGGACGG
TTTTGCACGTGTGTTC
TAGGTCACGTGGATAT
GTATCCACGTGCGGTG
TTAAACACGTGTTGGA
AGATGCACGTGTGAAG

Relative binding free energy, -0.22 kcal/mol:
GGAAGCACGTGGTTGG
GCGGGCACGTGGGGAA

Relative binding free energy, -0.09 kcal/mol:
AGAAACACGTGGGGGG
TCAGGCACGTGTCGGT
GTTGGCACGTGGATGG
TATTGCACGTGCTGTA

Relative binding free energy, -0.07 kcal/mol:
TTATACACGTGGTCTA
TTTACCACGTGGGGAG
TTTAGCACGTGCGGCG

Relative binding free energy, 0.23 kcal/mol:
TCTGTCACGTGAATGT
AAGGTCACGTGGGAAA
GGATTCACGTGTTATG
GTGGTCACGTGATGTC
CGAGTCACGTGATGTT

Relative binding free energy, 0.17 kcal/mol:
AAATTCACGTGGGTGG
TAGAACACGTGTAATT
TGAGCCACGTGAGAGG

Relative binding free energy, 0.15 kcal/mol:
ATGTTCACGTGGTTCT
GGATTCACGTGGTAAA
GGGATCACGTGGTTGC
GGGATCACGTGTTTCG
ATAGGCACGTGAGATG

Relative binding free energy, 0.29 kcal/mol:
TGCTTCACGTGGACTG
TGGTCCACGTGAAGTG
GTTTACACGTGAAGAG

Relative binding free energy, 0.21 kcal/mol:
GAGGGCACGTGTAAAA
AATTACACGTGGTTTC
TTTATCACGTGGATGC
TGAAACACGTGTAGGC
GGTGACACGTGTGGTT
TTGCACACGTGTGAGT
TGGAGCACGTGATAAA

Relative binding free energy, 0.11 kcal/mol:
AATTGCACGTGAATGT
TATGTCACGTGTGTTC
AGTAGCACGTGGAATA
CCTGTCACGTGATGTG
CGGGTCACGTGCGTTT
TCGGACACGTGGTTGT
TACGTCACGTGTTATG
ACTTGCACGTGCGGGA
TATTTCACGTGGTACG
GGTGTCACGTGCTTTC
TGGCGCACGTGATAGG

Relative binding free energy, 0.28 kcal/mol:
GTTAACACGTGAGTAT
GTTGTCACGTGATAGA

Relative binding free energy, 0.25 kcal/mol:
TTGTTCACGTGTGGTG
TGGTTCACGTGGTCTT

Relative binding free energy, 0.35 kcal/mol:
ATACTCACGTGAGTTA
GGTTTCACGTGGATGG
GTGTTCACGTGTTGAA

Relative binding free energy, 0.31 kcal/mol:
GTGGTCACGTGAAGTA

Relative binding free energy, 0.16 kcal/mol:
ATCGGCACGTGTGAAA
AGTGTCACGTGGATAA
ATACTCACGTGGTTGG

Relative binding free energy, 0.14 kcal/mol:
TACGACACGTGTGTAG
TTAATCACGTGCGGGT
GATATCACGTGGCGGG
ATGTGCACGTGTAAAA
GTAAACACGTGTAGTT
GTGGGCACGTGAAGGA
TGATACACGTGAGGTG

Relative binding free energy, -0.27 kcal/mol:
ACATACACGTGGGGTT
TGTGCCACGTGGCAGT

Relative binding free energy, -0.13 kcal/mol:
TGTGCCACGTGCGGTT
AGGAGCACGTGGGGAT
